{"source": "paper doi:10.1101/2024.10.16.618766", "about": "(bioRxiv, 2024)", "molecular_target": "the molecule itself", "assay": "cryo-EM structure", "data": [{"protein": "hTRPV[…]L (human TRPV4 channel with the mutation F617L) (natural protein) not shown", "values": [{"measurement": "stoichiometry N", "result": 4}]}]}
